Experimental data: the supplement of paper PMC8674133
Recombinant human monoclonal antibodies (heavy:light variable regions). ELISA EC50 on the named antigen, from 10 µg/ml down; IC50 / IC90 against spike pseudovirus on 293T-ACE2 cells, 48 h; lower = stronger. Calls: IC50 above 1,000 ng/ml = non-neutralizing; EC50 above 2,000 ng/ml = non-binder. The source prints 1000 for neutralization that was not reached; it is given as >1000 ng/ml. A few antibodies were first reported in earlier work of the same group.

B1: C2169 (protein)
chain 1: QVQLVQSGAEVKKPGASVKVSCKASGYTFTSYYMHWVRQAPGQGLEWMGIINPSGGSTSYAQKFQGRVTMTRDTSTSTVYMELSSLRSEDTAVYYCARDNDILTGYYLGHPHGMDVWGQGTTVTVSS
chain 2: SYELTQPPSVSVSPGQTARITCSGDALPKQYAYWYQQKPGQAPVLVIYKDSERPSGIPERFSGSSSGTTVTLTISGVQAEDEADYYCQSADSSVVFGGGTKLTVL
B2: C2170 (protein)
chain 1: QVQLVQSGAEVKKPGSSVKVSCKASGGTFSSYAISWVRQAPGQGLEWMGGIIPIFGTANYAQKFQGRVTITADESTSTAYMELSSLRSEDTAVYYCASCRYYYDSSGYAQPEDYFDYWGQGTLVTVSS
chain 2: QSVLTQPPSVSGAPGQRVTISCTGSSSNIGAGYDVHWYQQLPGTAPKLLIYGNSNRPSGVPDRFSGSKSGTSASLAITGLQAEDEADYYCQSYDSSLSGSHVVFGGGTKLTVL
B3: C2212 (protein)
chain 1: EVQLVESGGGLVQPGGSLRLSCAASGFIVSSNYMSWVRQAPGKGLEWVSLIYSGGSTYYADSVQGRFTISRDNSKNTLYLQMNSLRAEDTAVYYCARGPYPRGFDYWGQGALVTVSS
chain 2: IRMTQSPSSLSASVGDRVTITCQASQDIRKYLNWYQQKPGKAPKLLIYDASNLETGVPSRFSGSGSGTDFTFTISSLQPEDIATYYCQQYDNVPLTFGGGTKVEIK
B4: C2173 (protein)
chain 1: EVQLVESGGGLIQPGGSLRLSCAASGFTVSSNYMSWVRQAPGKGLEWVSVIYSGGSTYYADSVKGRFTISRDNSKNTLYLQMNSLRAEDTAVYYCARDIVGAIRGMDVWGQGTTVTVSS
chain 2: IRMTQSPSSLSASVGDRVTITCQASQDISNYLNWYQQKPGKAPKLLIYDASNLETGVPSRFSGSGSGTDFTFTISSLQPEDIATYYCQQYDNLPRTFGGGTKVEIK
B5: C2168 (protein)
chain 1: EVQLVQSGAEVKKPGESLKISCKGSGYSFTRYWIGWVRQMPGKGLEWMGIIDPGDSETRYSPSFQGQVTISADKSISTAYLQWSSLKASDTAMYYCARQYCGGDCPFDYWGQGTLVTVSS
chain 2: DIQMTQSPSTLSASVGDRVTITCRASQSISTWLAWYQQKPGKAPKLLIYDASSLESGVPSRFSGSGSGTEFTVTISSLQPDDFATYYCQQYKSYSRTFGQGTKVEIK
B6: C2174 (protein)
chain 1: QVQLQESGPGLVKPSETLSLTCTVSGGSISSYYWSWIRQPPGKGLEWIAYIYYSGGTNYNPSLKSRVTISVDTSKNQFSLKLSSVTAADTAVYYCARDLPHYDFWSGSSLDAFDIWGPGTMVTVSS
chain 2: QSALTQPASVSGSPGQSITISCTGTSSDVGGYNYVSWYQQHPGKAPKLMIYDVSNRPSGVSNRFSGSKSGNTASLTISGLQAEDEADYYCSSYTSSSTRVFGTGTKVTVL
B7: C2167 (protein)
chain 1: QLQLQESGPGLGKPSETLSLTCTVSGGSISSSSYYWGWIRQPPGKGLEWIGSIYYIGNTYYNPSLKSRVTISVDTSKNQFSLKLSSVTAADTAVYYCARHETDYGGVAGHFQHWGQGTLVTVSS
chain 2: QSALTQPASVSGSPGQSITISCTGTSSDVGSYNLVSWYQQHPGKAPKLMIYEGSKRPSGVSNRFSGSKSGNTASLTISGLQAEDEADYYCCSYAGTYVVFGGGTKLTVL
B8: C2172 (protein)
chain 1: EVQLVESGGGLVKPGGSLRLSCAASGFTFSSYNMNWVRQAPGKGLEWVSSISSSSSYISYADSVKGRFTISRDNAKNSLYLQMNSLRAEDTAVYYCAREGSTSCYPSFICDWFDPWGQGTLVTVSS
chain 2: EIVMTQSPATLSVSPGERATLSCRASQSVSSNLAWYQQKPGQAPRLLIYGASTRATGIPARFSGSGSGTEFTLTISSLQSEDFAVYYCQQYNNWPTFTFGPGTKVDIK

Experiments:
[1] = biological target: SARS-CoV-2 Wuhan-Hu-1 spike pseudovirus; experiment: pseudovirus neutralization IC50; higher = weaker neutralization
Description: (§1)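 Single-round luciferase reporter pseudovirus mixed with antibody dilutions and put on 293T-ACE2 cells for 48 h; signal relative to no-antibody wells, four-parameter fit.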

[2] = biological target: SARS-CoV-2 Wuhan-Hu-1 spike pseudovirus; experiment: pseudovirus neutralization IC90; higher = weaker neutralization
Description: as §1

[3] = biological target: SARS-CoV-2 Wuhan-Hu-1 spike receptor-binding domain; experiment: ELISA binding EC50; higher = weaker binding; ELISA of recombinant human antibody on coated antigen, from 10 µg/ml in fourfold dilutions; four-parameter fit.

Row | Binder | pseudovirus neutralization IC50 [1] [µg/mL] | pseudovirus neutralization IC90 [2] [µg/mL] | ELISA binding EC50 [3] [µg/mL]
1 | B1 | > 1 | > 1 | 0.00367
2 | B2 | 0.095 | 0.59 | 0.00188
3 | B3 | 0.012 | 0.0904 | 0.00168
4 | B4 | 0.0959 | 0.523 | 0.00158
5 | B5 | > 1 | > 1 | 0.0023
6 | B6 | 0.534 | > 1 | 0.0029
7 | B7 | 0.0798 | 0.769 | 0.00212
8 | B8 | 0.454 | > 1 | 0.00207
